In the RNAGym collection of RNA variant scans (doi:10.7554/elife.90254):
Read counts are not given, so values of variants with three or more changes are uncertain.

B1: LINE1-mini (parent)
chain: GGCAGAGCUCAACACAGCGUGGCAAAGUGGCUGUGGCUAGACUGCC

Variants of: B1
Assay: self-cleavage, relative activity (ratio to wild type); higher = more cleavage; in vitro, sequencing; the parent is a self-cleaving ribozyme

| Variant | self-cleavage |
| --- | --- |
| A11U G19U A24C G40A C42A | 0.01 |
| A11C G21A A39C | 0.01 |
| A11G C18G A41G | 0.02 |
| A11U A26G G35C A41G | 0 |
| A11C U20C G29U G30C | 0.01 |
| A12C G22C C23A | 0.03 |
| A12C G30U U32G U34C C42U | 0 |
| A12C C18A G27U | 0.1 |
| A11U U28A C37A C45G | 0 |
| A11C G30A A41U | 0.04 |
| A11U A14U A16C C23G | 0.03 |
| A12C C13G C15A G19C A26C G33A | 0.02 |
| A12C G22C C23U C37U | 0 |
| A11U A12C U32G G36U | 0.03 |
| A11C G30U C31A U38G | 0 |
| A12C C13U U34G C37A G40A | 0.01 |
| A12C G29U U38C | 0 |
| A11U G17A C31A U34G | 0 |
| A12C A16U G44U | 0.01 |
| A11G U20G G21U A39U | 0.02 |
| A12C C18U C42U U43A | 0.01 |
| A11C G22U G27A | 0.02 |
| A11G A16C U38G | 0 |
| A11U U20C G40U | 0.05 |

| Variant | self-cleavage |
| --- | --- |
| A11U A14U G22A G33U U38G | 0.04 |
| A11G A12G C18U G30C | 0 |
| A12C G27U U28G C46A | 0.01 |
| A11U G19U U34A | 0.03 |
| A11G G17C C23U C46U | 0.03 |
| A11C U20G G33U G35C | 0.01 |
| A11U A24U G27C | 0.11 |
| A12C G21A U28C C46A | 0 |
| A11U C15A G21U U32C C42G | 0.02 |
| A11G C15G G35A G36U | 0.01 |
| A12C G22U A39G | 0 |
| A11U U20G C42A | 0.01 |
| A12C C23A U38C | 0.01 |
| A11C G29C U43C | 0 |
| A12C G29A G36A A41C | 0.03 |
| A11C G22U G29A C37G C45U | 0.02 |
| A12C C31G U32C U38C C45G | 0 |
| A11G G17C U34C | 0.04 |
| A12C G22U G27U | 0.01 |
| A12C C15A A16G G19U G22C A25C U32A G44U | 0.01 |
| A11U G21C C23U G40A C42A | 0 |
| A11C G19C U34A | 0.02 |
| A12C G17U A41C | 0.01 |
| A11G C15A C23A | 0.03 |

| Variant | self-cleavage |
| --- | --- |
| A12C A41G C42U U43G | 0.01 |
| A12C C23U G44U | 0.01 |
| A11G A25U A41C | 0.03 |
| A11U A24C U32G | 0.03 |
| A12C C42U U43C | 0 |
| A12C C15A A16U G19A G44A | 0.03 |
| A11G A12C A25U G27A G40U | 0 |
| A11G C13U G44U | 0.03 |
| A11G C15A G36C | 0.06 |
| A11G C13G G30A | 0.03 |
| A11C G19U C31U G40A | 0 |
| A12C A26U G36U C46U | 0 |
| A11U C13U G27U U34C | 0.02 |
| A12C A16U A25C G29A C42G | 0.04 |
| A11U C15U G17C U20G C31U C46G | 0.03 |
| A11C G22C G36C | 0.02 |
| A11C G19U G33U C37G | 0.02 |
| A12C A14C G21A U38A G44U | 0.02 |
| A12C A14G C37A A39G | 0.02 |
| A11U U34G G35U | 0.03 |
| A11G A12G A14G G29C G44A | 0 |
| A11U G27U C37G C45A | 0 |
| A11U G22C A24G | 0.09 |
| A11G U20A C31A G36U A39U U43G C45A | 0 |

| Variant | self-cleavage |
| --- | --- |
| A12C C37U A39C G44U | 0 |
| A12C C13A G17U G44C | 0.02 |
| A11C G21U G40C | 0 |
| A11G G27U C45U | 0.01 |
| A11C U20G G29U | 0.01 |
| A11G G22U G29A | 0.1 |
| A12C G17A U38C A39U | 0.02 |
| A11C G30A U43C C46A | 0.01 |
| A12C C18A G22C | 0.01 |
| A12C C13A U34G G36C | 0.03 |
| A11U G19A G40A | 0.01 |
| A11G G36U C37A U38C | 0.02 |
| A11U G30C U43C | 0.01 |
| A11C G22C A25G G29C U32A G36U G44A | 0 |
| A11U G27U G30C | 0.07 |
| A12C A14G C18U | 0.01 |
| A11G C13A U28A U34G | 0.01 |
| A12C G17C G21U G35A | 0.01 |
| A11G G21A G29A G30A G36A C37G | 0 |
| A12C G29C C42A | 0.01 |
| A11G G19C U20G A25G A26G | 0.01 |
| A11U G30C C45G | 0.02 |
| A11U A16C G44C | 0.01 |
| A11G C42U G44A | 0.01 |

| Variant | self-cleavage |
| --- | --- |
| A11G A14C G30C A39U | 0.02 |
| A12C C13A A26C G35U | 0.05 |
| A11C G19C U20C A41C | 0 |
| A11U A25G U34G G35A | 0.03 |
| A11U A12C A16G U38G A41C | 0 |
| A11U A14U G35U | 0.01 |
| A11U A25C U28A | 0.01 |
| A11G G17A G33U | 0.03 |
| A11U A12U U28G C46U | 0.01 |
| A11U G35A U38G | 0.02 |
| A11G C18A G19A A25U C31U | 0.01 |
| A11C G29C U32C G35C | 0 |
| A11G U28C C42G | 0 |
| A11G C13G A24U C37U G40A A41G | 0.02 |
| A12C C13U G27U | 0.01 |
| A11G A24U A25U A39U G40U | 0.03 |
| A12C A25G C31U A41G | 0 |
| A11C G19U U32C C46G | 0.05 |
| A11G A12U G19C G27A | 0.01 |
| A12C A16G G21U | 0.02 |
| A11U A16U C42A C46U | 0.01 |
| A11G C31U A41G | 0.01 |
| A11G A14C G35C A39C C46U | 0 |
| A11C G40A C42A G44U C45U | 0.01 |

| Variant | self-cleavage |
| --- | --- |
| A11U G22U A25C | 0.04 |
| A11G C13G C31U G40A G44C | 0.01 |
| A11U A24C G30U | 0.01 |
| A11G C37A U38C | 0.03 |
| A11C G27U G29U | 0.03 |
| A11G G21A G29C U34C C45A | 0.01 |
| A11G C31A C37G | 0.01 |
| A11G G27U G29C C31G G33U | 0.02 |
| A11G A25G A41G C46U | 0.02 |
| A11C G33A C42A | 0.02 |
| A11G G27C C31U | 0.04 |
| A12C A25U A41G | 0.06 |
| A12C C15G A41U C42A | 0 |
| A12C G21A G33C C37A U38C C45A | 0.01 |
| A11U G33C U34C U38C | 0.02 |
| A11G G19C G33A | 0.01 |
| A11U G17C U20C C37U | 0.01 |
| A11U U32C G33U | 0.06 |
| A11G A12U C23A G27A A41C C46G | 0 |
| A11C U28C A39G C46A | 0.01 |
| A11G C15A C46G | 0.01 |
| A11U C18A U43A | 0.01 |
| A11U C37U U38A | 0 |
| A11U A12C C42A U43C | 0.02 |

| Variant | self-cleavage |
| --- | --- |
| A11G G22A C23A G36C | 0.02 |
| A11C U32A G36C C42U | 0.01 |
| A12C C31A C46U | 0.02 |
| A11G C18A U20A | 0 |
| A12C G19A A26U | 0.02 |
| A12C A16C U20G G22A | 0.01 |
| A11G A25G G30A U32A C42U C45A | 0.01 |
| A11U A12C A24U | 0.01 |
| A11U U34C G44A | 0.03 |
| A11G G19U A25G U32A G35C | 0.01 |
| A11U U28A G40A | 0.01 |
| A11G C37U A41C | 0.01 |
| A11C G22U U34G | 0.03 |
| A11U A12U C37U | 0 |
| A11C G21A A41C | 0.01 |
| A12C G22U G29C C42A | 0.04 |
| A11U A12C C23A A39C | 0 |
| A11U C13A G22C | 0.02 |
| A12C G36A C37A | 0.01 |
| A11U A14C G44A | 0.01 |
| A11G A16U U34A | 0.02 |
| A11U G27A G36A | 0.03 |
| A11U G30U U32C C37U | 0.04 |
